Laboratory results reported in PubChem BioAssay (NCI).
Several values for one entry are separate records, joined by “and”; a condition that tells them apart may be missing. Identical values can stand only once.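 48-hour exposure; five concentrations; linearly interpolated endpoints. GI50 is the concentration that inhibits growth by half. TGI is the concentration that stops growth completely.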

Test system: NCI-H322M lung
Assay: NCI-60 cell line screen, 48 h

SMILES: Cn1cc(-c2ccc3nnc(C(F)(F)c4ccc5ncccc5c4)n3n2)cn1
- GI50: 72.6 µM
- TGI: > 100 µM

SMILES: O=c1[nH]c(-c2ccc([N+](=O)[O-])cc2)nc2ccc(Cl)cc12
- TGI: > 100 µM

SMILES: O=C(c1cccnc1)N1N=C(c2ccc3c(c2)OCO3)CC1(O)c1cc(F)c(Cl)cc1Cl (centres undefined)
- TGI: 54 µM

SMILES: [Au+].c1c[n-]cn1.c1ccc([PH+](c2ccccc2)c2ccccc2)cc1
- GI50: 14.1 µM
- TGI: 30.4 µM

SMILES: CCOC(=O)CCC(C(=O)OCC)n1nnc2ccc(Nc3c(C)[n+]([O-])c4cc(F)c(OCC)cc4[n+]3[O-])cc21 (centres undefined)
- TGI: > 100 µM

SMILES: COc1ccc(Oc2nc3c(N)cc(C(F)(F)F)cc3nc2-c2ccccc2)cc1
- TGI: > 100 µM

SMILES: C=C(C)C1CCC2(C(=O)O)CCC3(C)C(CCC4C5(C)CCC(O)C(C)(C)C5CCC43C)C12 (centres undefined)
- TGI: 27.1 µM

SMILES: CCOC(=O)[C@@]12NN=N[C@@H]1[C@H]1CO[C@H](c3ccccc3)N1C2=O
- TGI: 30.7 µM

SMILES: CON(C(=O)OC(C)(C)C)c1ccccc1
- TGI: > 100 µM

SMILES: COc1cc2nc3n(c(=O)c2cc1OC)CCCCC3
- TGI: > 100 µM

SMILES: Cc1ccc(O)cc1 (tested in a mixture with another compound)
- TGI: > 100 µM

SMILES: COC(=O)C1Cc2c([nH]c3ccccc23)-c2[nH]c3ccccc3c2CC(NC(C)=O)C(=O)N2CCCC2C(=O)N1 (centres undefined)
- TGI: > 100 µM

SMILES: N#CC(C#N)C1CN2CCC1CC2 (centres undefined)
- TGI: > 100 µM

SMILES: N#Cc1c(O)c(C=O)c(=O)n2c1[nH]c1ccccc12
- TGI: > 100 µM

SMILES: COc1ccc2c(c1)CC1N(C)CCC13CCCCC23 (centres undefined)
- TGI: > 100 µM

SMILES: CC(C)=Cc1cc(C(=O)NCCNC(=O)c2cc(C=C(C)C)nc(NC#N)n2)nc(NC#N)n1
- TGI: > 100 µM

SMILES: Cc1ccnc(NC(c2ccccc2)c2ccc3cccnc3c2O)c1 (centres undefined)
- GI50: 1.88 µM
- TGI: 62.7 µM

SMILES: Nc1nc(-c2ccc3ccccc3c2)cc(-c2cc(-c3ccc4ccccc4c3)nc(N)n2)n1
- TGI: > 100 µM

SMILES: O=C(NC(Cc1ccccc1)C(=O)CCl)OCc1ccccc1 (centres undefined)
- GI50: 15.4 µM
- TGI: 30.6 µM and 32.3 µM

SMILES: CCOC(=O)C1=C(C)N(c2ccc(Cl)cc2)C2(O)C=CC(Nc3ccc(Cl)cc3)=C3C(=O)N(c4ccccc4)C(=O)C312 (centres undefined)
- TGI: 61.6 µM

SMILES: CC1=C(C(=O)NCCCN(CCO)CCO)CC(C(=O)NCCCN(CCO)CCO)=C(C)N1
- TGI: > 100 µM

SMILES: Cc1cc(C)c(C2=NO[C@@H]3C(=O)N(c4ccc(Cc5ccc(N6C(=O)[C@H]7C(c8c(C)cc(C)cc8C)=NO[C@H]7C6=O)cc5)cc4)C(=O)[C@H]23)c(C)c1
- TGI: > 100 µM

SMILES: Nc1nc(N)c2nc(CNc3ccc(C(=O)NC(CCNC(=O)c4ccccc4C(=O)O)C(=O)O)cc3)cnc2n1 (centres undefined)
- TGI: > 100 µM

SMILES: Cc1ccc(S(=O)(=O)OC2CSSCC2OS(=O)(=O)c2ccc(C)cc2)cc1 (centres undefined)
- TGI: 34.4 µM

SMILES: O=C1NC2OC(CO)C(O)C(O)C2O1 (centres undefined)
- TGI: > 100 µM

SMILES: CCOC(=O)CP(=S)(S)c1ccccc1 (centres undefined)
- TGI: > 100 µM

SMILES: NNC(=S)NN/C=C(\C=Nc1ccccc1)[N+](=O)[O-]
- TGI: > 100 µM

SMILES: COC(=O)C1CCCN1C(=O)OC(C)(C)C (centres undefined)
- TGI: > 100 µM

SMILES: O=c1[nH]c(-c2ccc(Cl)cc2)cc2ccsc12
- TGI: > 100 µM

SMILES: N/C(=N\C(N)=N\c1nc2ccccc2s1)c1ccnc(Br)c1
- GI50: 51.3 µM
- TGI: > 100 µM

SMILES: O=C1c2ccccc2C(=O)c2c(NCC3CO3)cccc21 (centres undefined)
- TGI: > 100 µM

SMILES: NCCCCCCCCCn1c2c(c3ccccc3c1=O)C(=O)c1ccccc1-2
- GI50: 9.07 µM
- TGI: 18.9 µM

SMILES: O=C1c2c(F)c(F)c(F)c(F)c2SC2=Nc3cccc4cccc(c34)N12
- TGI: 27.5 µM

SMILES: COc1cc(CC2C(=O)OCC2[C@@H](OC(C)=O)c2ccc3c(c2)OCO3)c(Br)c(OC)c1OC (some centres undefined)
- TGI: > 100 µM

SMILES: C=C(C)[C@@H]1CC[C@]2(C(=O)N3CCN(C)CC3)CC[C@]3(C)[C@H](CC[C@@H]4[C@@]5(C)CC[C@H](O)C(C)(C)[C@@H]5CC[C@]43C)[C@@H]12
- GI50: 1.73 µM
- TGI: 3.38 µM

SMILES: COC(=O)C1=Cc2cn(S(=O)(=O)c3ccc(C)cc3)c3cccc(c23)C(C=C(C)C)N1C(C)=O (centres undefined)
- TGI: > 100 µM

SMILES: O=C(c1ccccc1)c1c2n(c3c1cc(O)c1ccccc13)CCN2
- GI50: 3.34 µM
- TGI: 9.11 µM

SMILES: CN(C)CCNC(=O)c1cccc2[nH]c(-c3ccc(Cl)cc3)nc12
- TGI: 31.4 µM

SMILES: COC1/C=C/OC2(C)Oc3c(C)c(O)c4c(O)c(c(C=NOC(c5ccccc5)c5ccccc5)c(O)c4c3C2=O)NC(=O)/C(C)=C/C=C/C(C)C(O)C(C)C(O)C(C)C(OC(C)=O)C1C (centres undefined)
- GI50: 2.29 µM
- TGI: 8.25 µM

SMILES: O=C(NCCCc1cn[nH]c(=O)n1)c1cccc2nc3ccccc3nc12
- TGI: > 100 µM

SMILES: O=C(O)CCCc1cc2c(s1)-c1cccc3cccc-2c13
- TGI: 92.2 µM

SMILES: COc1ccc(Nc2ncccc2C(=O)NCc2cn(Cc3cccc(Oc4ccccc4)c3)nn2)c(OC)c1
- GI50: > 30.5 µM
- TGI: > 100 µM

SMILES: NC(CSC1(c2ccc(Cl)cc2)c2ccccc2-c2ccccc21)C(=O)O (centres undefined)
- TGI: > 100 µM

SMILES: C=C(C)[C@@H]1CCC2=C(CC[C@]3(C)[C@@H]([C@@H](CCC=C(C)C)C(=O)O)[C@H](O)C[C@@]23C)[C@@]1(C)CCC(=O)O
- TGI: > 100 µM

SMILES: COc1cccc2c1C(=O)c1c(O)c3c(c(O)c1C2=O)CC(O)(C(C)=O)CC3O (centres undefined)
- TGI: 36.6 µM

SMILES: C=CCn1c(=O)c(C(=O)NC(=O)OCC)cn(C2CCCCC2)c1=O
- TGI: > 100 µM

SMILES: Clc1ccc(Nc2ncnc3c2sc2ncccc23)c(Cl)c1
- GI50: 3.05 µM
- TGI: > 100 µM

SMILES: Cc1ccc(S(=O)(=O)NCCCSCCO)cc1
- TGI: > 100 µM

SMILES: CCOC(=O)C(NC(=O)c1ccccc1)(Nc1ccc(S(=O)(=O)Nc2ccc(OC)nn2)cc1)C(F)(F)F (centres undefined)
- TGI: > 100 µM

SMILES: COc1cc(/C=C/C2=NN(c3cccc(S(=O)(=O)O)c3)C3(C2)SCC(=O)N3c2nc3ccccc3s2)cc(OC)c1OC (centres undefined)
- TGI: > 100 µM

SMILES: C[C@]12CCC(=O)C=C1CC[C@@H]1C2CC[C@@]2(C)C1CC[C@@H]2OC(=O)C12OC1CCC2=O (some centres undefined)
- TGI: 82.7 µM

SMILES: Nc1ccn(CCCC(c2ccccc2)P(=O)(O)O)c(=O)n1 (centres undefined)
- TGI: > 100 µM

SMILES: CCOC(=O)Nc1cc(-c2ccc(C)c(NS(C)(=O)=O)c2)nn2c(C)nnc12
- GI50: 2.33 µM
- TGI: 20.4 µM

SMILES: CN(C)CCCN=c1c2ccccc2n(C)c2[nH]c(=O)n(C)c(=O)c12
- TGI: 20.8 µM

SMILES: O=C(Nc1nc(-c2ccccc2Cl)cs1)c1cc(-c2ccc(Cl)cc2)nc2ccc(Cl)cc12
- GI50: 29.9 µM
- TGI: > 100 µM

SMILES: Cn1c(=O)oc2cc(C(=S)N3CCCCC3)ccc21
- TGI: > 100 µM

SMILES: COc1cc(/C=C2\CC3C4CCC5=CC(=O)CC[C@]5(C)C4CC[C@]3(C)C2=O)ccc1OCCN1CCCCC1 (some centres undefined)
- GI50: 2.81 µM
- TGI: 8.44 µM

SMILES: Cc1cc(C)c(C(=O)/C(=C/c2ccccc2)c2ccccc2)c(C)c1
- TGI: > 100 µM

SMILES: COC1C(C)OC(OC2CC(C)(O)Cc3cc4c(c(O)c32)C(=O)c2c(O)cc3c(c2C4=O)OC2OC3(C)C(O)C(N(C)C)C2O)C(OC)C1(C)OC (centres undefined)
- TGI: 1.43 µM and 0.317 µM

SMILES: COc1ccc(N2C(=O)C3C=CC(n4[nH]c(=O)n(Cc5ccccc5)c4=O)CC3C2=O)cc1 (centres undefined)
- TGI: > 100 µM

SMILES: N#CCN1CCCN(CC#N)CCN(CC#N)CCCN(CC#N)CC1
- TGI: > 100 µM

SMILES: CC(C)OC(=O)c1cccnc1/C=N/O
- TGI: > 100 µM

SMILES: O=Cc1cn(S(=O)(=O)c2ccccc2)c2ccccc12
- TGI: > 100 µM

SMILES: CCN(CC)CC(O)c1cc(-c2ccc(Cl)cc2)nc2cc(Cl)ccc12 (centres undefined)
- GI50: 2.33 µM
- TGI: 8.39 µM
